Screen size: about 48,000 compounds; about 1,200 (2.5%) were called active. Another 2% or so got no clear call; they are omitted.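 The calls were made as follows: active = activation of at least 60% and not above a set upper limit (about 1 call in 100 departs from these limits); inconclusive = activation of 40% to 60%, or above that upper limit; inactive = activation under 40%.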 The list shows a part of the results.

The experiment has as its target Probable G-protein coupled receptor 32 (Homo sapiens) (UniProt O75388). The experiment is described as follows: qHTS for Agonists of Human Resolvin D1 Receptor DRV1. Also: 0% is about no effect. As to conditions: CHO-K1 GPR32 beta-arrestin PathHunter luminescence, 90 min; at 76.9 µM; hits give high values; zero percent set by DMSO-only wells. In outline: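 Luminescent readout of beta-Gal complementation quantifies ligand-induced beta-arrestin association with GPR32 in CHO-K1 cells; 90 min compound incubation at 37 °C, detection 1 h at room temperature.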
UniProt O75388, sequence (O75388 whole entry, looked up): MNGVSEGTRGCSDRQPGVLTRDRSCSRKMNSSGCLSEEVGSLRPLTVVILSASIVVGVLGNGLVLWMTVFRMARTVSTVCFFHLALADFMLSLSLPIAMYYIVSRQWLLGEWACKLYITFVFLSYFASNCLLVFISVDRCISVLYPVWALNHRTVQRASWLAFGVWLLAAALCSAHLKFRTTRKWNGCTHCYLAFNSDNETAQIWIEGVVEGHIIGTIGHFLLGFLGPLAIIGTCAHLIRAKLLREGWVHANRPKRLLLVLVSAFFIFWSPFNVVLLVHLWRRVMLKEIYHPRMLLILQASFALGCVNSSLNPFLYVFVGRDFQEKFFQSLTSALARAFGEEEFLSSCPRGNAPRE
Background: In qHTS, concentration-response curves come from the screen itself.
As to `Cn1c(C(=O)NCCc2ccccc2)cc2cc(S(=O)(=O)N3CCCCC3)ccc21`, the activation is inactive: -11.3%.

Take `Cc1cccc(NC(=O)C(=O)NCC(c2cccnc2)N2CCN(Cc3ccccc3)CC2)c1` (centres undefined): the activation was inactive: -3.2%.

In the case of `CCCC(=O)Nc1ccc2nc(SCCOc3ccccc3)sc2c1`, the activation is inactive: 0.627%.

Turning to `CCCN1Cc2cccc(C(=O)Nc3ccccc3F)c2C1=O`, the activation is inactive: -6.77%. As for `COc1ccc(Cl)cc1NC(=O)c1c(NCc2cccnc2)sc2c1CCCC2`, the figure is inactive: -1.03%; as for `CC(C)(C)OC(=O)N1CCC(c2c(C(=O)NCCc3ccsc3)cnn2-c2ccc(F)cc2F)CC1`, inactive: -26.3%. Regarding `CCOC(=O)c1c(Nc2ccc(OCC)cc2)nnc(-c2ccccc2)c1-c1ccccc1`, the activation is inactive: 1.42%.

Turning to `COc1ccccc1C(=O)Nc1nnc(S(=O)(=O)N2CCCCC2)s1`, the activation was inactive: 5.74%. As for `CC(C)c1cnc2c(c1SCC(=O)c1ccc(Cl)cc1)c(=O)n(C)c(=O)n2C`, the activation was inactive: -26.1%. Turning to `COc1ccc2ncc3c(-c4ccccc4)nn(-c4ccc(C)c(C)c4)c3c2c1`, the activation was inactive: -5.22%. For `Nc1nc(Cl)nc2c1ncn2[C@@H]1O[C@H](COP(=O)(O)OP(=O)(O)OP(=O)(O)O)[C@@H](O)[C@H]1O`, the activation was inactive: -2.64%. For `COc1ccccc1NC(=O)CSc1ncc(CO)n1Cc1ccc(F)cc1`, the activation is active: 65.3%. As for `Cc1cc(-c2ccccc2)nc2cc(C(=O)Nc3ccc(Cl)c(Cl)c3)nn12`, the figure is inactive: -3.22%; as for `Cc1ccccc1NC(=O)Cn1c(=O)n(Cc2ccco2)c(=O)c2ccc(C(=O)NC3CCCC3)cc21`, inactive: -3.09%; as for `Cc1cccc(N2CCN(C(=O)C3CCN(S(=O)(=O)Cc4ccccc4)CC3)CC2)c1C`, inactive: -1.19%. As to `Cc1ccc(C)c(Cn2cc(CCC(=O)NC3CCCCC3)c3ccccc32)c1`, the activation was inactive: -18.8%. Take `Cn1c(NCc2ccccc2F)nc2ccccc21`: the activation was inactive: 13.9%. Take `COc1cc(Cl)c(C)cc1NC(=O)CSCc1nc(-c2ccc(OC)c(OC)c2)no1`: the activation is inactive: -18.7%. On to `Cc1cccc(C)c1NC(=O)C1CCN(S(=O)(=O)c2cccc3nsnc23)CC1`, for which the activation was inactive: -1.79%. Regarding `N=c1n(CCO)c2ccccc2n1CCOc1ccc(F)cc1`, the activation is inactive: 12.1%. Take `CC(=O)c1cccc(-n2c(CCC(=O)O)ccc2-c2ccccc2)c1`: the activation was inactive: -10.9%. In the case of `COc1ccc(OC)c(Nc2cc(C(=O)NCc3ccccc3)c3ccccc3n2)c1`, the activation was inactive: -13.5%. For `COc1ccc(-c2nc(SCC(=O)NC3CCCC3)c(-c3ccccc3)[nH]2)cc1OC` the value was inactive: -24.1%; for `CCOC(=O)C1CCN(C(=O)c2ccc3c(c2)sc2nc(-c4ccc(OCC)cc4)cn23)CC1`, inactive: 14.5%.

These data come from PubChem BioAssay AID1346428 (National Center for Advancing Translational Sciences (NCATS), 2018).
